Results as given in the supplement of paper PMC12015411.

What was measured:
Test in all cases: growth relative to the colistin-free well (fraction of colistin-free control); nitroxoline concentration 0 µg/ml; higher = more growth, less inhibition
Escherichia coli BW25113 = test system: Escherichia coli BW25113
Protocol: (§1)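 Two-fold colistin steps (0.25-16 µg/ml) in cation-adjusted Mueller-Hinton broth at 37 °C; OD595 at 10.75 h as a fraction of the colistin-free well with the same nitroxoline dose, four biological replicates.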

[1] = test system: Escherichia coli J53 pKP2442_mcr-1
Protocol: as §1

[2] = test system: Escherichia coli J53 pTOPO_mcr-1
Protocol: as §1

[3] = test system: Escherichia coli J53 pTOPO
Protocol: as §1

Escherichia coli J53 = test system: Escherichia coli J53
Protocol: as §1

[4] = test system: Escherichia coli MG1655 pmrA (G53E)
Protocol: as §1

[5] = test system: Escherichia coli MG1655 pmrB (V88E)
Protocol: as §1

Escherichia coli MG1655 = test system: Escherichia coli MG1655
Protocol: as §1

[6] = test system: Klebsiella pneumoniae 2442 mcr-1
Protocol: as §1

[7] = test system: Klebsiella pneumoniae CT-R3 pmrB (P95L)
Protocol: as §1

[8] = test system: Klebsiella pneumoniae CT-S
Protocol: as §1

[9] = test system: Klebsiella pneumoniae LS107
Protocol: as §1

[10] = test system: Klebsiella pneumoniae LS53 mgrB (IS1R)
Protocol: as §1

[11] = test system: Klebsiella pneumoniae PRZ pKP2442_mcr-1
Protocol: as §1

[12] = test system: Klebsiella pneumoniae PRZ pTOPO_mcr-1
Protocol: as §1

[13] = test system: Klebsiella pneumoniae PRZ pTOPO
Protocol: as §1

[14] = test system: Klebsiella pneumoniae PRZ
Protocol: as §1

CCC(C)CCCC(=O)N[C@@H](CCN)C(=O)N[C@H](C(=O)N[C@@H](CCN)C(=O)N[C@H]1CCNC(=O)[C@H]([C@@H](C)O)NC(=O)[C@H](CCN)NC(=O)[C@H](CCN)NC(=O)[C@H](CC(C)C)NC(=O)[C@@H](CC(C)C)NC(=O)[C@H](CCN)NC1=O)[C@@H](C)O (some centres undefined) [colistin]
growth
Conditions	0.25 µg/ml	0.5 µg/ml	1 µg/ml	2 µg/ml	4 µg/ml	8 µg/ml	16 µg/ml
Escherichia coli BW25113	1.11 ± 0.061	1.1 ± 0.091	0.766 ± 0.086	0.0041 ± 0.0013	0.00458 ± 0.0013	0.00697 ± 0.0021	0.00775 ± 0.0016
Escherichia coli J53	0.964 ± 0.033	0.758 ± 0.11	0	0	0	0.00529 ± 0.0053	0.00719 ± 0.0034
Escherichia coli MG1655	1.04 ± 0.024	1.18 ± 0.03	0.302 ± 0.15	0.00371 ± 0.001	0.00422 ± 0.0019	0.00451 ± 0.0024	0.00909 ± 0.0016
[1]	1.06 ± 0.042	1.13 ± 0.05	1.11 ± 0.036	1.21 ± 0.03	1.05 ± 0.023	0	0
[2]	1.05 ± 0.13	1.107 ± 0.008	0.448 ± 0.018	0.0291 ± 0.012	0	0	0
[3]	0.9158 ± 0.0058	0.869 ± 0.091	0.000661 ± 0.00066	0	0.00458 ± 0.0033	0	0
[4]	1.09 ± 0.05	1.02 ± 0.12	1.1 ± 0.051	1.15 ± 0.044	1.18 ± 0.059	1.14 ± 0.029	0.00597 ± 0.0016
[5]	0.967 ± 0.046	1.07 ± 0.013	1.13 ± 0.028	1.21 ± 0.022	1.18 ± 0.024	1.27 ± 0.026	0.0488 ± 0.018
[6]	1.08 ± 0.026	1.06 ± 0.019	1.16 ± 0.034	0.982 ± 0.057	0.984 ± 0.016	0.72429 ± 0.00062	0.00225 ± 0.0022
[7]	1.1 ± 0.026	1.05 ± 0.032	1.236 ± 0.0093	1.184 ± 0.005	1.21 ± 0.026	1.19 ± 0.032	0.897 ± 0.022
[8]	1.09 ± 0.014	1.15 ± 0.041	0.757 ± 0.056	0.00283 ± 0.0028	0.00424 ± 0.00029	0.00396 ± 0.004	0.0109 ± 0.005
[9]	1.12 ± 0.021	1.02 ± 0.037	0.603 ± 0.064	0	0.000583 ± 0.00058	0.00654 ± 0.0065	0.00233 ± 0.0023
[10]	1.04 ± 0.028	1.13 ± 0.034	1.01 ± 0.024	1.16 ± 0.039	1.11 ± 0.038	0.89 ± 0.049	0.855 ± 0.059
[11]	1.08 ± 0.013	1.067 ± 0.0095	1.04 ± 0.12	1.2 ± 0.041	1.04 ± 0.16	1.02 ± 0.024	0
[12]	1	0.996 ± 0.01	0.9798 ± 0.006	0.93 ± 0.025	0.613 ± 0.1	0	0
[13]	1	0.969 ± 0.013	0.9605 ± 0.0077	0	0	0	0
[14]	1.006 ± 0.0064	1.02 ± 0.015	0.89 ± 0.097	0.00119 ± 0.00085	0.00296 ± 0.0019	0.00149 ± 0.0009	0.00326 ± 0.002

± gives the uncertainty stated by the source. Bacterial growth in Mueller-Hinton broth at 37 °C with the drug at the dose given, alone or with nitroxoline. Checkerboards on E. coli BW25113: OD600 at the end of exponential growth as a fraction of no-drug wells. Colistin series: OD595 at 10.75 h as a fraction of the colistin-free well. 1 = full growth, lower = more inhibition. No active / inactive call per well. Checkerboard doses stop near each drug's IC75, and their values pile up at 1, as if capped there. Colistin and gentamicin are mixtures; one drawing stands for each.
